According to publication PMC9910247 (Journal of Translational Medicine, 2023):

Biological target: T1, recombinant human ACE2 protein (human, UniProt Q9BYF1, biotinylated (site not stated; said in the results only))
T1 construct: also called biotinylated ACE2; not shown: Fc (mouse IgG)
Assay: BLI; Octet RED96; human ACE2 (20 µg/ml) held on the sensor (methods: anti-mIgG Fc Capture probe; results: biotinylated ACE2 on streptavidin biosensors); ApoE at 735.3-5882 nM in PBST; 1:1 Langmuir model
Conditions: both partners purified

T1 sequence (Q9BYF1 18-740): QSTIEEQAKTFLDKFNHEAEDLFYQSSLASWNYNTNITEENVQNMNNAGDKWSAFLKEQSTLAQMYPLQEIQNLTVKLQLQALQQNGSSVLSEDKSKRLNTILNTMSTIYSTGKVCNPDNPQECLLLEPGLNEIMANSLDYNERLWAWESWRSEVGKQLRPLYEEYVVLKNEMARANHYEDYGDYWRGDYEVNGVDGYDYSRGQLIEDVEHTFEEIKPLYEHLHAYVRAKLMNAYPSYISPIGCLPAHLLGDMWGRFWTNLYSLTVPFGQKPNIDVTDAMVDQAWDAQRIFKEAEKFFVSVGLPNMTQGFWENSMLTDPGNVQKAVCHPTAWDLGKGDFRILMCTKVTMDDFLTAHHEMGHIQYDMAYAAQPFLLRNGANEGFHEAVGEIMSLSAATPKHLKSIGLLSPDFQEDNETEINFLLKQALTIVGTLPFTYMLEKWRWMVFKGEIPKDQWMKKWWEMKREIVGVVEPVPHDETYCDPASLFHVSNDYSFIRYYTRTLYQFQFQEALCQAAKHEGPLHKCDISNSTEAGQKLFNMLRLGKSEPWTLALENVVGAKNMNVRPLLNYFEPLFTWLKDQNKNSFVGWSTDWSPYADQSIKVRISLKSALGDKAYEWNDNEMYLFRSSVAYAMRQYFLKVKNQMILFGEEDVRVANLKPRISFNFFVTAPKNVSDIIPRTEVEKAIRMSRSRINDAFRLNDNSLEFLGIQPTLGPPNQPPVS

Row | Binder | binding result
1 | recombinant human ApoE2 (natural protein, also called purified recombinant ApoE) not shown | binds
2 | recombinant human ApoE4 (natural protein, also called purified recombinant ApoE) not shown | binds
